{"source": "PubChem BioAssay AID720542", "about": "(National Center for Advancing Translational Sciences (NCATS), 2013)", "note": "The whole screen tested about 360,000 compounds, of which about 740 (0.21%) were called active. Inconclusive results, whose numbers are uncertain, are shown with a selection of clear calls. Calls follow the shape of the dose curve; as a rule, active = well fitted inhibition curve with a large enough effect; inconclusive = small, poorly fitted or top-dose-only effect; inactive = no such curve, though single readings can be large or run the other way. Potencies of inconclusive entries are left out as doubtful fits. Potency is read from the fitted curve at half-maximal effect; tags tell the direction and shape of the fitted curve."}
{"tested_on": "Plasmodium falciparum AMA1 (3D7) - RON2 peptide interaction", "test": "qHTS for Inhibitors of AMA1-RON; Towards Development of Antimalarial Drug Lead: Primary Screen; also: nearly all actives have a fitted effect of over 45% in size;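 as to activity change, negative = inhibition: 0% = vehicle wells and -100% = peptide control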", "conditions": "AlphaScreen AMA1-biotinylated RON2 peptide binding; activity change, negative = inhibition: at 58.2 µM (top of the series) unless noted", "outline": "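AMA1 (3D7) with his tag at 25 nM final met compounds first, then biotinylated RON2 peptide at 25 nM; detection used donor plus acceptor beads, 10 µg/mL apiece, read by AlphaScreen after 30 min at room temperature.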"}
{"compound": "O=C(COC(=O)c1n[nH]c2ccccc12)NC(=O)NC12CC3CC(CC(C3)C1)C2", "Potency": "inconclusive [inhibitor, single point]"}
{"compound": "COc1ccc(C=NNc2ccc(S(=O)(=O)Nc3ccccc3C(=O)O)cc2[N+](=O)[O-])c(OC)c1", "Potency": "inconclusive [inhibitor, partial curve]"}
{"compound": "COc1cc(/C=N/N=C2/C(=O)Nc3ccccc32)cc(OC)c1O", "Potency": "inconclusive [inhibitor, single point]"}
{"compound": "CCN(CC)c1ccc(Nc2cc3n(c(=O)n2)CCc2cc(OC)c(OC)cc2-3)cc1", "Potency": "inconclusive [inhibitor, single point]"}
{"compound": "Brc1ccc(N=Nc2ccc3ccccc3n2)cc1", "Potency": "inconclusive [inhibitor, full curve]"}
{"compound": "OCCN1CCN(C(=S)Nc2cccc(C(F)(F)F)c2)CC1", "Potency": "inconclusive [inhibitor, partial curve]"}
{"compound": "Cc1oc(-c2ccccc2)cc1C(=O)Nc1ccc2ccccc2c1", "Potency": "inconclusive [inhibitor, partial curve, poor fit]"}
{"compound": "COc1ccccc1C1CC(c2cccs2)=Nc2ccccc2S1", "note": "(configuration not stated)", "Potency": "inconclusive [inhibitor, single point]"}
{"compound": "C/C(=N\\N1CCN(Cc2ccc(Cl)cc2)CC1)c1ccc([N+](=O)[O-])cc1", "Potency": "inconclusive [inhibitor, partial curve, poor fit]"}
{"compound": "CCOc1cc(S(=O)(=O)Nc2cc(C)cc(C)c2)ccc1Cl", "Potency": "inconclusive [inhibitor, single point]"}
{"compound": "COc1ccc(N(CCCN2C(=O)c3cccc4cccc(c34)C2=O)C(=O)c2cccnc2)cc1", "Potency": "inconclusive [inhibitor, partial curve]"}
{"compound": "CC1=NCC(C)c2c1[nH]c1ccccc21", "note": "(configuration not stated)", "Potency": "inconclusive [inhibitor, single point]"}
{"compound": "Cc1ccc([N+](=O)[O-])cc1S(=O)(=O)NCCc1c(C)[nH]c2c(C)cccc12", "activity change, negative = inhibition": "inactive: -2.78%"}
{"compound": "CC1(c2ccc([N+](=O)[O-])cc2)NC(=O)N(CC(=O)Nc2ccc(N3CCCCC3)cc2)C1=O", "note": "(configuration not stated)", "Potency": "inconclusive [inhibitor, single point]"}
{"compound": "COc1coc(C(O)C[N+](=O)[O-])cc1=O", "note": "(configuration not stated)", "Potency": "inconclusive [inhibitor, single point]"}
{"compound": "Cc1ccc(C)c(N2N=C(C(=O)Nc3ccccc3N3CCCC3)CCC2=O)c1", "Potency": "inconclusive [inhibitor, partial curve]"}
{"compound": "Nc1ccc(Cn2ccc3c4c(N)nc(N)nc4ccc32)cc1", "Potency": "inconclusive [inhibitor, single point]"}
{"compound": "Clc1nc(Cl)nc(-c2cn(-c3ccccc3)c3ccccc23)n1", "Potency": "inconclusive [inhibitor, single point]"}
{"compound": "O=C(c1cc(C2CC2)on1)N1CCCC(N2CCN(c3cccc(C(F)(F)F)c3)CC2)C1", "note": "(configuration not stated)", "Potency": "inconclusive [inhibitor, partial curve]"}
{"compound": "CC(C)c1ccccc1NC(=O)CC1(CC(=O)O)CCCC1", "activity change, negative = inhibition": "inactive: -18.5%"}
{"compound": "O=C(CN1C(=O)NC(c2ccccc2)(c2ccccc2)C1=O)NCc1ccccc1", "activity change, negative = inhibition": "inactive: 20.5%"}
{"compound": "CCOc1ccc(C(=O)Nc2ccc(N3CCCC3)cc2)cc1", "Potency": "inconclusive [inhibitor, single point]"}
{"compound": "O=[N+]([O-])c1cccnc1Sc1ccc(F)cc1", "Potency": "inconclusive [inhibitor, partial curve]"}
{"compound": "CC(C)(C)c1ccc(C(=O)Nc2cccnc2)cc1", "activity change, negative = inhibition": "inactive: 7.14%"}
{"compound": "CCSc1nc2sc3c(c2c(=O)n1C1CCCCC1)CCN(C)C3", "Potency": "inconclusive [inhibitor, partial curve, poor fit]"}
{"compound": "CC(C)c1ccc2c(c1)C1(NN=C(c3ccccc3)S1)C(=O)N2", "note": "(configuration not stated)", "Potency": "inconclusive [inhibitor, single point]"}
{"compound": "CCCCn1c(-c2cccc(Br)c2)nc2cc3[nH]c(=O)c(C(C)C)nc3cc21", "activity change, negative = inhibition": "inactive: 14.7%"}
{"compound": "CC(=O)N1CCN(c2ccc(NCc3cccs3)cc2)CC1", "activity change, negative = inhibition": "inactive: -0.152%"}
{"compound": "CCC(C)C(CO)NCCCn1cnc2c(SC)ncnc21", "note": "(configuration not stated)", "activity change, negative = inhibition": "inactive: -5.92%"}
{"compound": "S=C(Nc1ccccc1)Nc1nc2ccccc2n1CCOc1ccc(Cl)cc1", "Potency": "inconclusive [inhibitor, single point]"}
{"compound": "CN(C)c1ccc(C(=O)c2ccc(O)cc2O)cc1", "Potency": "inconclusive [inhibitor, single point]"}
{"compound": "N#CC1=C2SCN(c3ccccc3)CN2C(=O)CC1c1cccs1", "note": "(configuration not stated)", "activity change, negative = inhibition": "inactive: 22.2%"}
{"compound": "COCCn1c(SCCOc2ccccc2)nc2ccccc2c1=O", "activity change, negative = inhibition": "inactive: 16%"}
{"compound": "COc1cc(/C=N/Nc2ccc(S(N)(=O)=O)cc2[N+](=O)[O-])cc(OC)c1O", "activity change, negative = inhibition": "inactive: -6.6%"}
{"compound": "Cc1cccc(NC(=O)Cc2ccc(-c3ccccc3)cc2)n1", "activity change, negative = inhibition": "inactive: -5.86%"}
{"compound": "CN(C)CCNS(=O)(=O)c1ccc(N2CCc3ccccc32)c([N+](=O)[O-])c1", "Potency": "inconclusive [inhibitor, single point]"}
{"compound": "Cc1cccc(Nc2nc(N)nc(CN3CCN(c4ccccc4F)CC3)n2)c1", "Potency": "inconclusive [inhibitor, single point]"}
{"compound": "CC(=O)Nc1ccc(S(=O)(=O)N2CCC(N3CCCCCC3)CC2)cc1", "Potency": "inconclusive [inhibitor, partial curve]"}
{"compound": "CN(C)CCCN1c2ccc(O)cc2Sc2ccc(Cl)cc21", "Potency": "active: 20 µM"}
{"compound": "COc1ccc(NC(=O)Cc2c(Sc3ccccc3)c3ccccc3n2C)cc1", "activity change, negative = inhibition": "inactive: -0.568%"}
{"compound": "Nc1ccc(C=C2C=Cc3ccccc32)cc1", "Potency": "inconclusive [inhibitor, single point]"}
{"compound": "CN(CCc1ccccc1)C(=O)c1ccc(NC(=O)Cc2ccc(NC(=O)C3CCN(C(=O)C4CCCCC4)CC3)cc2)cc1", "Potency": "inconclusive [inhibitor, partial curve]"}
{"compound": "CN(C)c1cccc(NC(=O)c2ccc(-c3ccc(F)c(F)c3)c3ccoc23)c1", "Potency": "inconclusive [inhibitor, partial curve]"}
{"compound": "Cc1ccc(S(=O)(=O)N2c3ccccc3OC(C(=O)OC(C)(C)C)(C(=O)OC(C)(C)C)C2CC(=O)c2ccccc2)cc1", "note": "(configuration not stated)", "Potency": "inconclusive [inhibitor, full curve, poor fit]"}
{"compound": "O=C1/C(=C\\c2ccc(Br)o2)SC(=Nc2ccccc2)N1c1ccccc1", "Potency": "inconclusive [inhibitor, partial curve]"}
{"compound": "COCOc1cccc(CN2CCC(C)(Oc3cccc(OC)c3)C2)c1", "note": "(configuration not stated)", "Potency": "inconclusive [inhibitor, full curve, poor fit]"}
{"compound": "O=C(O)CCCCCN1C(=O)/C(=C/c2cn(-c3ccccc3)nc2-c2cccs2)SC1=S", "Potency": "inconclusive [inhibitor, partial curve]"}
{"compound": "CC1CCN(Cc2ccc(NC(=O)C3CCN(c4nnc(-n5cccc5)s4)CC3)cc2)CC1", "activity change, negative = inhibition": "inactive: -2.17%"}
{"compound": "N#C/C(=C\\c1cc(O)c(O)c(O)c1)C(N)=O", "Potency": "inconclusive [inhibitor, partial curve]"}
{"compound": "Cc1ccccc1C(=O)Nc1ccc(S(=O)(=O)N2CC(C)OC(C)C2)cc1", "note": "(configuration not stated)", "activity change, negative = inhibition": "inactive: 0%"}
{"compound": "c1coc(-c2ncc[nH]2)c1", "Potency": "active: 28.2 µM"}
{"compound": "CC(=O)c1cccc(NC(=O)CSc2ccc(-c3ccccn3)nn2)c1", "Potency": "inconclusive [inhibitor, single point]"}
{"compound": "NC(=O)c1sc2nc3c(c(-c4cccs4)c2c1N)CCCCC3", "Potency": "inconclusive [inhibitor, single point]"}
{"compound": "Cc1cc(C)cc(C(O)c2ncc(-c3ccccc3)[nH]2)c1", "note": "(configuration not stated)", "activity change, negative = inhibition": "inactive: -19.2%"}
{"compound": "C#CCOCCOCCOCCNc1nc(N2CCN(C(=O)CCCCCCCCCCNC(=O)[C@H](CCCCN)n3cc(C[C@@H](C)CC)nn3)CC2)nc(N2CCN(C(=O)CCCCCCCCCCNC(=O)[C@H](CCCN=C(N)N)n3cc(C[C@@H](C)CC)nn3)CC2)n1", "Potency": "inconclusive [inhibitor, single point]"}
{"compound": "COc1ccc(OCC(=O)N2CCN(Cc3c[nH]c4ccccc34)CC2)cc1", "Potency": "inconclusive [inhibitor, full curve, poor fit]"}
{"compound": "O=C(NC1CCCCC1)N1CCC(c2nc3ccccc3[nH]2)CC1", "activity change, negative = inhibition": "inactive: 67.6%"}
{"compound": "Cc1nc2ccccc2c(=O)n1/N=C/c1ccc(O)c(O)c1O", "Potency": "inconclusive [inhibitor, partial curve]"}
{"compound": "COCCCN(C(=O)c1cc(Cl)nc2ccccc12)c1c(N)n(Cc2ccccc2)c(=O)[nH]c1=O", "activity change, negative = inhibition": "inactive: -7.34%"}
{"compound": "COc1ccc(Cc2c(-c3ccc(OC)c(OC)c3)nc3ccc(C)cn23)c(C)c1", "Potency": "inconclusive [inhibitor, single point]"}
{"compound": "O=[N+]([O-])c1cccc(-c2ccc(C(=S)N3CCN(c4ccc(F)cc4)CC3)o2)c1", "Potency": "inconclusive [inhibitor, partial curve]"}
{"compound": "O=C(c1ccc2[nH]c3c(c2c1)CCCC3)N1CCN(c2ccc(F)cc2)CC1", "Potency": "inconclusive [inhibitor, single point]"}
{"compound": "COc1cc(/C=C/c2ccc3cccc([N+](=O)[O-])c3n2)ccc1OCC#N", "activity change, negative = inhibition": "inconclusive: -19.8% [inhibitor]"}
{"compound": "CCOC(=O)C(=CNNc1ccccc1)C(=O)OCC", "Potency": "inconclusive [inhibitor, partial curve]"}
{"compound": "CCOC(=O)c1cnc2c(cnn2C)c1NCCCN(C)C", "activity change, negative = inhibition": "inactive: 0%"}
{"compound": "O=C(Nc1ccc2nc(C3CC3)n(Cc3ccc(F)cc3)c(=O)c2c1)c1ccco1", "Potency": "inconclusive [inhibitor, full curve, poor fit]"}
{"compound": "CCOc1cccc2sc(=NC(=O)c3ccco3)n(CC(=O)OC)c12", "activity change, negative = inhibition": "inactive: 6.13%"}
